# Reference: PubChem BioAssay AID624417 (National Center for Advancing Translational Sciences (NCATS), 2012)
# Among all 410,000 compounds or so, about 6,400 (1.6%) were called active. This list was built around the results that the source calls inconclusive (neither active nor inactive); the mix of calls is not that of the screen. Calls follow the shape of the dose curve; as a rule, active = well fitted inhibition curve with a large enough effect; inconclusive = small, poorly fitted or top-dose-only effect; inactive = no such curve, though single readings can be large or run the other way. Potencies of inconclusive entries are left out as doubtful fits.
# Molecular target: Glucagon-like peptide 1 receptor (Homo sapiens) (UniProt P43220)
# Experiment: qHTS of GLP-1 Receptor Inverse Agonists (Inhibition Mode); also: nearly all actives have a fitted effect of over 55% in size
# Conditions: HEK293 GLP-1R CRE-luciferase, luminescence, 24 h, GLP-1R form is constitutively active; series mostly up to 38.3 µM
# Text: The overall goal of this project was to develop a novel assay for discovering small molecule ligands for class B1 G protein-coupled receptors (GPCRs). Very few agonists (or inverse agonists in inhibition mode) with generally weak activity for this entire group of physiologically important receptors are known to date. To establish proof-of-principle that this critical bottleneck can be overcome with a suitable screening approach, our studies focused on the class B1 receptor for glucagon-like peptide-1 (GLP-1R), a potential therapeutic target for diabetes and neurodegenerative disease. The assay was developed using a cell-based functional readout. Toward this goal, stably transfected HEK293 cell clones were established that co-express (i) a cAMP-responsive luciferase reporter gene, and (ii) constitutively active GLP-1R that upon ligand interaction inhibit (inverse agonists) the luciferase activity. In addition, two control cell lines were developed: (i) one that express only the cAMP-responsive reporter gene to enable initial exclusion of GLP-1R independent effects of candidate probes; and (ii) one with the reported gene cloned with another constitutively active orphan receptor GPR119 to enable exclusion of GLP-1R independent inhibitor effects of candidate inverse agonists. To that end, this assay was optimized for 1536-well format and screened against the MLSMR. […] NIH Molecular Libraries Probe Production Network [MLPCN] NIH Chemical Genomics Center [NCGC] Grant: NS064851 PI Name: Martin Beinborn, Tufts Medical Center
# Six ul of cell suspension (200 cells/uL in DMEM + 10% Nu serum + 1% pen-strep) is dispensed in a white solid 1536-well plate. The plates are incubated for 12 hours at 37 deg C at 5% CO2 followed by addition of 23 nL compounds. After 24 hr incubation at 37 deg C and 5% CO2, 3 uL of luciferase assay detection reagent is added. A luminescence read is obtained on the PerkinElmer Viewlux after 12 min incubation at room temperature.
# Potency is read from the fitted curve at half-maximal effect; tags tell the direction and shape of the fitted curve.
# Chain of UniProt P43220 (P43220 whole entry, looked up): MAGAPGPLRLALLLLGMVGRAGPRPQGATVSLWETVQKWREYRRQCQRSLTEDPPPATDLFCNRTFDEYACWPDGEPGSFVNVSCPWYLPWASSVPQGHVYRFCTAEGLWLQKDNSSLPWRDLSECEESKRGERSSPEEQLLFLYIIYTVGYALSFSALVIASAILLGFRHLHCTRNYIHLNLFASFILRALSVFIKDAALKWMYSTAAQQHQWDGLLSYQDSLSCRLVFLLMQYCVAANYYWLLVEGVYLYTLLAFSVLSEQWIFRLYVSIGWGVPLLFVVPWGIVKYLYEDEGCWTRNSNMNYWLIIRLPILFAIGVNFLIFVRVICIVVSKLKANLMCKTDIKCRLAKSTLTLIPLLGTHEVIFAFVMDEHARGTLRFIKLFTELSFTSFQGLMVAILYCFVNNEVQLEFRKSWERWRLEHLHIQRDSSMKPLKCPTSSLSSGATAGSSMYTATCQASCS
row,SMILES,Potency
1,OCCCn1c(C2CCCN2c2nc(-c3ccc(Cl)cc3)cs2)nc2cc(Cl)c(Cl)cc21 (stereo not drawn),"inconclusive [inhibitor, single point]"
2,Cc1cccc(N2CCN(C(=O)C3COc4ccccc4O3)CC2)c1C (stereo not drawn),"inconclusive [inhibitor, single point]"
3,CCCCN(CCCC)C1=C(C(=O)c2ccccc2)N(C)S(=O)(=O)c2ccccc21,inactive
4,CCOc1ccc(CCN2C(=S)N([C@@H](CC(C)C)CN3CCC[C@@H]3CN3C(=S)NC[C@@H]3Cc3ccc(O)cc3)C[C@@H]2Cc2ccc(O)cc2)cc1,"inconclusive [inhibitor, single point]"
5,CCCCN1C(C(=O)c2ccccc2)=C(OC(C)=O)c2ccccc2S1(=O)=O,"inconclusive [inhibitor, partial curve, poor fit]"
6,Cc1ccc(-c2nc(Nc3cccc(C)c3)sc2CC(=O)O)cc1,"inconclusive [inhibitor, single point]"
7,CCc1nc2ccccc2c(NC(=O)CN2CC(C)CC(C)C2)c1C (stereo not drawn),"inconclusive [inhibitor, partial curve, poor fit]"
8,Cc1cc(C)nc(SCCC(=O)N2CCOCC2)n1,inactive
9,O=C(Nc1sc2c(c1C(=O)N1CCCCC1)CCCC2)c1ccccc1Cl,"inconclusive [inhibitor, single point]"
10,O=c1ccc2ccc(OCc3nnc(-c4ccccc4Br)o3)cc2o1,inactive
11,C/C(=N\NC(=O)C1(C)CC1(Br)Br)c1cccc(NC(=O)C(C)(C)C)c1 (stereo not drawn),"inconclusive [inhibitor, single point]"
12,CCCn1c(N2CCN(C(=O)N3CCCCC3)CC2)nc2ccccc21,"inconclusive [inhibitor, partial curve, poor fit]"
13,CCOc1ccc(C(CN2CCOCC2)C(C)=O)cc1OC (stereo not drawn),"inconclusive [inhibitor, single point]"
14,O=C(Cc1csc(Nc2nc(=S)[nH]c3ccccc23)n1)NCc1cccc(Cl)c1,inactive
15,Cc1ccc2c(=O)cc(C(=O)Nc3sc4c(c3C(=O)NCc3ccccc3)CCCC4)oc2c1C,inactive
16,O=C(COc1ccc2c3c(c(=O)oc2c1)CCC3)N1CCN(c2ccc(F)cc2)CC1,"inconclusive [inhibitor, partial curve, poor fit]"
17,CN1C(=O)/C(=C2\SC(=S)N(C(CCC(=O)O)C(=O)O)C2=O)c2ccccc21 (stereo not drawn),"inconclusive [inhibitor, partial curve, poor fit]"
18,O=C(O)c1cccc(S(=O)(=O)N2CCN(C(c3ccccc3)c3ccccc3)CC2)c1,inactive
19,CCCCCCOc1ccc(C2C(=O)N(C3CCCCC3)CC(=O)N2CCCC)cc1 (stereo not drawn),"inconclusive [inhibitor, full curve]"
20,O=C1c2ccccc2NC(c2cn[nH]c2-c2ccc(Cl)cc2)N1O (stereo not drawn),"inconclusive [inhibitor, single point]"
21,O=C(NCC(c1ccc(F)cc1)N1CCOCC1)c1cccnc1Sc1ccc(Cl)cc1 (stereo not drawn),"inconclusive [inhibitor, single point]"

row,SMILES,Potency
1,COc1ccc(CC(=O)Nc2ccccc2N2CCCC2)cc1,"inconclusive [inhibitor, single point]"
2,CCOc1ccccc1NC(=O)c1cc(SC)ccc1Cl,"inconclusive [inhibitor, single point]"
3,CCOC(=O)c1c(NC(=O)C2=C(C)NC(=S)NC2c2ccc(F)cc2)sc(C)c1C (stereo not drawn),"inconclusive [inhibitor, single point]"
4,COc1ccc(N(C(=O)c2cccc(C)c2)S(=O)(=O)c2ccc(Cl)cc2)cc1,"inconclusive [inhibitor, single point]"
5,CN(CC(=O)Nc1ccccc1Br)C(=O)c1cccnc1Nc1cccc(C(F)(F)F)c1,"inconclusive [inhibitor, partial curve, poor fit]"
6,COc1ccc(Nc2nc(N3CCN(S(C)(=O)=O)CC3)nc3ccccc23)c(OC)c1,inactive
7,Cc1ccc2c(c1)nnn2C1CCN(CC(=O)Nc2ccc3c(c2)OCCO3)CC1,"inconclusive [inhibitor, partial curve]"
8,C=CCOC1=CS(=O)(=O)N(Cc2ccc(Br)cc2)c2ccc(Br)cc21,"inconclusive [inhibitor, partial curve, poor fit]"
9,Fc1ccc2c(c1)-c1nc(-c3ccccc3)cc(-c3ccccc3)c1CO2,inactive
10,COc1ccc(C)cc1NC(=O)C1CCCCN1S(=O)(=O)c1ccccc1 (stereo not drawn),"inconclusive [inhibitor, partial curve, poor fit]"
11,CC(C)C(C(=O)OCC(=O)c1ccccc1)N1C(=O)C2C3C=CC(C3)C2C1=O (stereo not drawn),"inconclusive [inhibitor, partial curve, poor fit]"
12,O=C(CNC(=O)c1ccc(Br)o1)NCc1cccc(Cl)c1,"inconclusive [inhibitor, partial curve]"
13,Cc1ccc(SCC(=O)NCc2ccccc2C)cc1,"inconclusive [inhibitor, partial curve, poor fit]"
14,CCOC(=O)c1c(NC(=O)CSc2nnc(-c3ccco3)o2)sc(C(C)=O)c1C,inactive
15,CCOC(=O)CSc1nc2c(sc(=S)n2-c2ccccc2)c(=O)n1-c1ccc(OC)cc1OC,"inconclusive [inhibitor, single point]"
16,Cc1ccc(NC(=O)CO/N=C/c2ccccc2C)c(C)c1,"inconclusive [inhibitor, partial curve, poor fit]"
17,CCOC(=O)c1c(C)[nH]c(C)c1C(=O)COC(=O)/C=C/c1ccc(OC)cc1,"inconclusive [inhibitor, full curve]"
18,Cc1ccc2[nH]c3c(N4CCN(Cc5ccccc5)CC4)ncnc3c2c1,"inconclusive [inhibitor, partial curve, poor fit]"
19,O=C1NC(=O)C(Cc2cccc(Oc3ccccc3)c2)S1 (stereo not drawn),"inconclusive [inhibitor, single point]"
20,CC#CC[N+](C)(C)CCCCCCCCCCCC,"inconclusive [inhibitor, partial curve, poor fit]"
21,O=C(N[C@H]1CC1c1ccccc1)c1ccc([N+](=O)[O-])cc1 (stereo partly drawn),"inconclusive [inhibitor, single point]"

row,SMILES,Potency
1,CNc1oc(-c2ccco2)nc1C#N,inactive
2,COc1ccc(C(=O)N2CC3(CC(c4cccc(NC(=O)CC(c5ccccc5)c5ccccc5)c4)=NO3)C[C@H]2C(N)=O)cc1 (stereo partly drawn),"inconclusive [inhibitor, partial curve, poor fit]"
3,CCCCN(CC)CCCNC(=O)Nc1sc2nc3n(c(=O)c2c1C)CCC(C)CC3 (stereo not drawn),active: 10 µM
4,Cc1ccccc1NS(=O)(=O)c1ccc(NC(=O)c2nc3ncccn3n2)cc1,inactive
5,COc1cccc(CNC(=O)CCC(=O)N2CC(C)Oc3ccccc32)c1OC (stereo not drawn),inactive
6,COc1ccc(C(=O)NCC(c2ccco2)N2CCc3ccccc32)cc1OC (stereo not drawn),"inconclusive [inhibitor, partial curve]"
7,O=C(O)COc1ccccc1/C=C1\SC(=O)N(Cc2ccc(F)cc2)C1=O,"inconclusive [inhibitor, partial curve, poor fit]"
8,CC(O)(c1ccccc1)c1nc(-c2cccc(F)c2)cs1 (stereo not drawn),"inconclusive [inhibitor, single point]"
9,Cc1cc(C(=O)CSc2n[nH]c(-c3ccccc3F)n2)c(C)n1Cc1cccs1,"inconclusive [inhibitor, single point]"
10,Cc1ccc2nc(SCC(=O)c3ccc(Cl)s3)[nH]c2c1,"inconclusive [inhibitor, partial curve, poor fit]"
11,Cc1ccc(C(=O)Nc2ccccc2-c2ccccc2)cc1[N+](=O)[O-],"inconclusive [inhibitor, partial curve, poor fit]"
12,CC(NC(=O)/C(=C/c1ccc(OC(F)F)cc1)c1ccccc1)c1ccccc1 (stereo not drawn),active: 4.47 µM
13,OCCOc1ccc(CN2CCCC(N3CCN(c4ccc(F)cc4)CC3)C2)cc1 (stereo not drawn),"inconclusive [inhibitor, single point]"
14,Cc1cc(OCC(O)CN2CCCC2)cc(C)c1Cl (stereo not drawn),"inconclusive [inhibitor, partial curve, poor fit]"
15,Cc1ccccc1CNC(=O)CCC(=O)N1CCOc2ccc(Cl)cc21,"inconclusive [inhibitor, partial curve, poor fit]"
16,CCC(C)Sc1cccc(-c2nc3cnccn3c2NC2CCCCC2)c1 (stereo not drawn),active: 10 µM
17,COc1cc(OC)c2cc(C(=O)N/N=C/c3cccc(OC)c3O)[nH]c2c1,inactive
18,Cc1ccc(C(=O)/C=C/c2cn(CC(O)CN3CCOCC3)c3ccccc23)cc1 (stereo not drawn),"inconclusive [inhibitor, single point]"
19,c1ccc2c(NC3=NCCCCS3)cccc2c1,"inconclusive [inhibitor, partial curve, poor fit]"
20,CC1(C)C(=O)N(CC(=O)Nc2ccc(Br)cc2F)c2ccccc21,"inconclusive [inhibitor, single point]"
21,COc1ccc2nc(N(Cc3cccnc3)C(=O)C3CCCCC3)sc2c1,"inconclusive [inhibitor, partial curve, poor fit]"
